In the supplement of paper PMC7335073:
In all, about 4,100 sequences were measured (“relative CpG methylation activity (normalised to average over all NNNCGNNN flanks)”: median about 0.94, highest 2% from about 1.9 on). Some of the results follow.

What follows are sequences tested against DNMT3B catalytic domain (mouse) (UniProt O88509) (assay: relative CpG methylation activity (normalised to average over all NNNCGNNN flanks) (relative (1 = mean)); higher = more methylation of the central CpG). Settings: system: in vitro, murine catalytic domain; CpG state: hemimethylated substrate pool; residues: 558-859.
How it was run: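 For Illumina sequencing, DNA was processed by proteinase K, BsaI-HFv2 digestion, hairpin ligation, bisulfite conversion and two-step PCR after methylation by murine DNMT3A or DNMT3B catalytic domain. The methylation reaction contained 0.8 mM S-adenosyl-L-methionine in HEPES pH 7.5 buffer and ran at 37 °C for 60 min on pooled dsDNA substrates with a central CpG inside 10 random flanking nucleotides. Relative methylation activity was computed as the average methylation of each flanking context divided by the mean over all contexts. Contexts covered three flanking bases per side, and there were two independent repeats per experiment.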

UniProt O88509, sequence (O88509 558-859): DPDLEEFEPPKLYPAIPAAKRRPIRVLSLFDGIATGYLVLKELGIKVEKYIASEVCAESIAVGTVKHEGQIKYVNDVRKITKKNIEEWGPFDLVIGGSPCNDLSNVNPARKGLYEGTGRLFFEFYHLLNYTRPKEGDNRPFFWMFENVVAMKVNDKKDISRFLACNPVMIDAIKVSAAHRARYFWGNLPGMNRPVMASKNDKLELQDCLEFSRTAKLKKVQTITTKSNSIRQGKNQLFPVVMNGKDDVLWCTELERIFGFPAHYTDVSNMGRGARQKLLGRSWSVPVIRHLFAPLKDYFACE

Row | Sequence | relative CpG methylation activity
1 | GCACGGTC | 1.47
2 | TAGCGAAA | 0.838
3 | CAACGGAT | 1.02
4 | CGTCGCTC | 0.705
5 | TATCGGCA | 1.95
6 | ACTCGGAA | 0.769
7 | GCGCGTGA | 0.478
8 | AGTCGTAA | 0.127
9 | TGTCGGCA | 1.54
10 | CTACGGTG | 1.7
11 | CAGCGATT | 1.14
12 | GCTCGTTG | 0.295
13 | GGCCGTCC | 0.655
14 | TCTCGTCG | 0.785
15 | ACTCGGTA | 1.12
16 | CATCGCGT | 0.667
17 | TGACGAGG | 1.23
18 | GGACGAGC | 1.7
19 | GAGCGTAT | 0.648
20 | GGCCGCAT | 0.203
21 | ACCCGGGG | 1.47
22 | CGTCGCAC | 0.431
23 | AAGCGTTT | 0.413
24 | TCGCGGTC | 0.887

Row | Sequence | relative CpG methylation activity
25 | CTACGGGG | 1.9
26 | TTCCGTCC | 1.57
27 | ACGCGGTG | 0.999
28 | ACACGTGG | 0.376
29 | GCTCGACA | 1.19
30 | GGACGGGA | 1.15
31 | TGGCGTTC | 0.177
32 | CGTCGGAT | 0.754
33 | ATTCGATC | 1.64
34 | TTACGCAG | 1.3
35 | TATCGAAT | 1.41
36 | AGCCGGGC | 0.73
37 | CGGCGAAA | 0.759
38 | ATCCGGAG | 0.728
39 | CGTCGCGG | 0.625
40 | CTTCGAAA | 1.57
41 | TTTCGTTC | 1.09
42 | TATCGGCC | 2.01
43 | CTTCGATC | 1.65
44 | TTTCGAGT | 1.88
45 | GTTCGGGA | 1.24
46 | CCACGAAG | 1.12
47 | ATCCGAGC | 1.68
48 | CTGCGCAG | 0.754

Row | Sequence | relative CpG methylation activity
49 | ACCCGCAA | 0.492
50 | CAACGATA | 1.77
51 | TAGCGGCC | 1.23
52 | CGACGCTC | 1.04
53 | GATCGAGT | 1.14
54 | CTACGAGC | 2.12
55 | TAACGCTA | 1.1
56 | CCGCGCAA | 0.463
57 | GTTCGAGC | 1.66
58 | ATACGCAG | 1.1
59 | TCGCGTAG | 0.566
60 | GACCGCCA | 0.457
61 | TCACGATT | 1.62
62 | ATACGCCC | 1.69
63 | GCACGGAC | 1.46
64 | CAGCGGAT | 0.496
65 | TGGCGGGA | 0.753
66 | CTCCGAGA | 1.73
67 | ATTCGTTC | 0.876
68 | ACGCGAAG | 0.742
69 | GTACGGTC | 1.87
70 | TTTCGTCT | 0.942
71 | CCTCGACG | 1.2
72 | CTGCGCTG | 0.95

Row | Sequence | relative CpG methylation activity
73 | TACCGATA | 1.41
74 | ATGCGGGT | 1.25
75 | GGTCGCGG | 0.472
76 | GTTCGGGT | 1.37
77 | ATACGAAA | 1.6
78 | GTGCGTAA | 0.796
79 | CTTCGCAC | 0.989
80 | TATCGAAC | 1.75
81 | CAGCGGTA | 0.98
82 | TGGCGATC | 1.08
83 | AGCCGTTT | 0.174
84 | GACCGTCA | 0.328
85 | CCTCGAGC | 1.57
86 | TCCCGCGA | 0.402
87 | CATCGAAT | 1.56
88 | CGCCGTAG | 0.147
89 | GCCCGCTA | 0.804
90 | CCGCGCGG | 0.612
91 | ATTCGGTT | 1.37
92 | TCTCGCTG | 0.568
93 | TCACGGTT | 1.17
94 | TTTCGGAG | 0.893
